Patent US11178870B2 (priority 2017, dated 2021)

What was measured:
[1] = system: Phytophthora infestans; type: in vivo; settings: Table 7, Test F
[2] = system: Colletotrichum orbiculare; settings: 250 ppm sprayed (2.5 ml/pot) before inoculation; assessed 6 to 10 days after inoculation
[3] = system: Magnaporthe grisea; type: in vivo; settings: Table 7, Test A

Compound | control value, Test F (late blight on tomato) [1] | control value, Test H (anthracnose on cucumber) [2] | control value, Test A (blast on rice) [3]
CCn1c(-c2ccccc2Cl)c(-n2cc(F)cn2)ccc1=O [Compound 350] | L (L shows the control value of 50% or less) | H (H shows the control value more than 50%) | 
CCn1c(-c2ccccc2Br)c(-n2cc(F)cn2)cc(Br)c1=O [Compound 358] | L (L shows the control value of 50% or less) | H (H shows the control value more than 50%) | H (H shows the control value more than 50%)
O=c1ccc(-c2ccsc2Cl)c(-c2c(F)cccc2F)n1CC(F)F [Compound 366] | L (L shows the control value of 50% or less) | H (H shows the control value more than 50%) | H (H shows the control value more than 50%)
CCn1c(-c2c(F)cccc2F)c(-c2sccc2C)ccc1=O [Compound 359] | H (H shows the control value more than 50%) | H (H shows the control value more than 50%) | H (H shows the control value more than 50%)
